According to PubChem BioAssay:
The shares of active, inactive and inconclusive entries below differ from those in the screen. The source made the active and inactive calls.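 The calls were made as follows: active = viability at or below 27.92% in each of two runs, the all-compound median minus 4 SD; inconclusive = no clear call, values can overlap the other calls; inactive = the rest.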

Test: viability of PTEN-null HCT116 cells – cell-based, HCT116 clonal line, CellTiter-Glo, pilot screen (AID 824);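 also: 0% = 20 µM Hyamine control and 100% = vehicle cell control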
Details: HCT116 PTEN-deleted viability, 60 h, at 10 µM, active compounds read low
In the case of `O=c1[nH]c2ccc(S(=O)(=O)NCc3ccccn3)cc2s1`, the viability is reported as inconclusive: 101%.
In the case of `c1ccc(-c2nnc(CSc3nncs3)o2)cc1`, the viability is reported as inconclusive: 105%.
For `COc1cccc(C2CC(=O)N3CN(c4cccc(Cl)c4C)CSC3=C2C#N)c1OC` (stereo not given), the viability was inactive: 63.9%.
In the case of `Cc1cc(Nc2nc3c(c(=O)n(C)c(=O)n3C)n2C)n(-c2ccc(Cl)cc2)n1`, the viability is reported as inconclusive: 83.5%.
In the case of `CC(NC(=O)C(C)(C)C)c1nc2ccccc2n1C` (stereo not given), the viability is reported as inconclusive: 96.5%.
With `O=C(NCc1nc2ccccc2[nH]1)c1ccc(S(=O)(=O)N2CCOCC2)cc1` the viability was inconclusive: 84.4%.
In the case of `CCCCCn1c(=O)[nH]c2cc(C(=O)NCc3ccc4c(c3)OCO4)ccc2c1=O`, the viability is reported as inconclusive: 75.5%.
With `O=C(NCc1ccc(N2CCCC2=O)cc1)c1cn(CCc2ccccc2)nn1` the viability was inconclusive: 90.7%.
With `CC12COC3(C(=O)Nc4cccnc4)CC1CCC32C` (stereo not given) the viability was inconclusive: 104%.
For `COc1cccc(C2CC(c3ccc(C)cc3)Nc3nc(N)nn32)c1` (stereo not given), the viability was inactive: 95.5%.
In the case of `CCOC(=O)c1ccc(NC(=O)C2C3C=CC(C3)C2C(=O)O)cc1` (stereo not given), the viability is reported as inactive: 106%.
For `CCOC(=O)C1CCN(C(=O)Cc2c(C(=O)O)[nH]c3ccccc23)CC1`, the viability was inconclusive: 87.8%.
In the case of `Cc1cc(C)n2nc(CCc3nc4nc(C)cc(C)n4n3)nc2n1`, the viability is reported as inconclusive: 99.2%.
In the case of `COc1ccc(OCCCC(=O)Nc2nncs2)cc1`, the viability is reported as inconclusive: 108%.
With `O=C(O)CCc1ccc(-c2cccs2)n1NC(=O)c1ccc(Cl)cc1` the viability was inactive: 93.9%.
For `CCOC(=O)C1CCCN(C(=O)CC(C)c2ccccc2)C1` (stereo not given), the viability was inconclusive: 103%.
For `CCOc1cccc2c1OC1(C)CC2NC(=O)N1c1cccc(Cl)c1` (stereo not given), the viability was inconclusive: 94.9%.
With `CCSc1nnc(NC(=O)C2CC=CCC2C(=O)O)s1` (stereo not given) the viability was inconclusive: 103%.
For `O=C(NCc1cccnc1)NC1(C(F)(F)F)Oc2ccc(Cl)cc2O1` (stereo not given), the viability was inactive: 58.7%.
For `Cn1c(=O)[nH]c(=O)c2c1nc(Sc1ncccn1)n2CCCc1ccccc1`, the viability was inconclusive: 90.7%.
For `CC(C)CNc1oc(-c2ccc(F)cc2)nc1C#N`, the viability was inactive: 84.7%.
In the case of `CN(C)/C=C1/Sc2ccccc2C1=O`, the viability is reported as inconclusive: 98.2%.
With `Cc1nc2nc(SCC(=O)N3CCOCC3)nn2c(C)c1Cc1c(F)cccc1Cl` the viability was inconclusive: 88.7%.
With `CCCn1c(CNC(=O)Cc2ccccc2)nc2ccccc21` the viability was inconclusive: 89.4%.
For `N#C/C(=C1\CCCN1)c1ccc2ccccc2n1`, the viability was inconclusive: 84.2%.
With `Cc1ccccc1NC(=O)CN(C)S(=O)(=O)c1cccc2cccnc12` the viability was inactive: 95.7%.
With `C(=N\n1cnnc1)/c1ccc(N2CCOCC2)s1` the viability was inconclusive: 94%.
For `CCOC(=O)c1ccc(NC(=O)Cn2cc3c(n2)CCC(C)C3)cc1` (stereo not given), the viability was inactive: 106%.
For `C=CCn1c(CCNC(=O)C(C)(C)C)nc2ccccc21`, the viability was inconclusive: 96.3%.
In the case of `Cc1cccc(N(CC(=O)Nc2c(C)n(C)n(-c3ccccc3)c2=O)S(C)(=O)=O)c1C`, the viability is reported as inconclusive: 96.9%.
With `CSc1nc2c(c(=O)n1-c1ccccc1)SCC2` the viability was inconclusive: 92.7%.
With `CCCCNC(=O)c1ccc(NC(=O)C2CCCO2)cc1` (stereo not given) the viability was inconclusive: 93.2%.
In the case of `O=C(Nc1ccc(Br)cc1Cl)c1cnccn1`, the viability is reported as inconclusive: 90.5%.
In the case of `CC(C)OCCCNC(=O)c1ccc(NC(=O)C2CCCO2)cc1` (stereo not given), the viability is reported as inconclusive: 104%.
With `CCN(CC)S(=O)(=O)c1ccc(NC(=O)Cn2c(=O)oc3ccccc32)cc1` the viability was inconclusive: 86.7%.
For `c1coc(CNc2nc3sc4c(c3c3ncnn23)CCCC4)c1`, the viability was inconclusive: 93.4%.
For `COc1ccc2c(c1)SC1=NCCS(=O)(=O)N12`, the viability was inconclusive: 87.9%.
With `C(=N\c1nccs1)/c1c[nH]c2ccccc12` the viability was inconclusive: 97%.
With `CC(=O)c1ccc(N2CCN(C(=O)c3ccc(NC(=O)C4CCCO4)cc3)CC2)cc1` (stereo not given) the viability was inconclusive: 89.2%.
With `CCOC(=O)c1cc(NC(=O)OC)c(C)nc1C` the viability was inconclusive: 106%.
